Experimental data published in the antibiotic and cytotoxicity screens of Wong et al. (2023).
Some of the results follow.

Columns and labels:
[1] = tested on: HSkMC (human skeletal muscle cells); assay: cytotoxicity call (relative viability < 0.9); conditions: 10 µM
[2] = tested on: HepG2; assay: cytotoxicity call (relative viability < 0.9); conditions: 10 µM
[3] = tested on: S. aureus RN4220; assay: growth inhibition call (relative growth <= 0.2); conditions: 50 µM

Cc1noc(C)c1S(=O)(=O)N(C)C[C@@H]1Oc2ccc(N(C)C)cc2CC(=O)N([C@H](C)CO)C[C@H]1C
inactive: cytotoxicity call [1] | cytotoxicity call [2] | growth inhibition call [3]

Cc1ccc(S(=O)(=O)N(C)C[C@@H]2OCCCC[C@H](C)Oc3ccc(NC(=O)CCCCCC(=O)Nc4ccccc4N)cc3C(=O)N([C@H](C)CO)C[C@@H]2C)cc1
inactive: cytotoxicity call [1] | cytotoxicity call [2] | growth inhibition call [3]

O=C1CNC(=O)N1[C@H]1CCNC1
inactive: cytotoxicity call [1] | cytotoxicity call [2] | growth inhibition call [3]

C[C@@H]1CCCCO[C@H](CN(C)Cc2ccncc2)[C@@H](C)CN([C@H](C)CO)C(=O)c2cc(NC(=O)NC3CCCCC3)ccc2O1
inactive: cytotoxicity call [1] | cytotoxicity call [2] | growth inhibition call [3]

COc1ccc(S(=O)(=O)N(C)C[C@H]2Oc3ccc(NC(=O)CCN4CCOCC4)cc3C(=O)N([C@H](C)CO)C[C@@H]2C)cc1
inactive: cytotoxicity call [1] | cytotoxicity call [2] | growth inhibition call [3]

Cc1noc(C)c1NC(=O)N(C)C[C@@H]1Oc2c(NC(=O)C3CC3)cccc2C(=O)N([C@@H](C)CO)C[C@@H]1C
inactive: cytotoxicity call [1] | cytotoxicity call [2] | growth inhibition call [3]

COc1ccc(S(=O)(=O)N(C)C[C@@H]2Oc3ccc(NS(C)(=O)=O)cc3C(=O)N([C@H](C)CO)C[C@H]2C)cc1
inactive: cytotoxicity call [1] | cytotoxicity call [2] | growth inhibition call [3]

C[C@H](CO)N1C[C@H](C)[C@@H](CN(C)S(=O)(=O)c2ccccc2)Oc2ccc(NS(=O)(=O)c3cccs3)cc2CC1=O
inactive: cytotoxicity call [1] | cytotoxicity call [2] | growth inhibition call [3]

Nc1cccc(Cn2cncn2)c1
inactive: cytotoxicity call [1] | cytotoxicity call [2] | growth inhibition call [3]

COCC(=O)N1CC[C@]2(CC1)CN([C@H](CO)c1[nH]c3cc(ccc3c12)OC)S(=O)(=O)C
inactive: cytotoxicity call [1] | cytotoxicity call [2] | growth inhibition call [3]

Cn1c(=O)c2c(nc(SCSc3nc4c(c(=O)n(C)c(=O)n4C)n3C)n2C)n(C)c1=O
inactive: cytotoxicity call [1] | cytotoxicity call [2] | growth inhibition call [3]

C[C@@H]1CCCCO[C@@H](CN(C)C(=O)c2ccccc2)[C@@H](C)CN([C@@H](C)CO)C(=O)c2cc(NC(=O)NC3CCCCC3)ccc2O1
inactive: cytotoxicity call [1] | cytotoxicity call [2] | growth inhibition call [3]
